# Laboratory results published in a collection of fitness landscapes (doi:10.1016/j.celrep.2020.107928).
# Whole data set: some 81,000 sequences, median “one-hybrid fitness for binding parS DNA” near -0.17, cut for the highest 2% near 0.51. The list shows a part of the results.
# B1: Caulobacter ParB omega fusion; a variant is named by its letters at X, in order, B8GW30 (parent)
# chain: MESVVVGEPGMSEGRRGLGRGLSALLGEVDAAPAQAPGEQLGGSREAPIEILQRNPDQPRRTFREEDLEDLSNSIREKGVLQPILVRPSPDTAGEYQIVAGERAWRAAQRAGLKTVPIMVRELDDLAVLEIGIIENVQRADLNVLEEALSYKVLMEKFERTQENIAQTIGKSXSHVANXMRLLXLPDEVQSYLVSGELTAXHARAIAAAADPVALAKQIIEGGLSVRETEALARKAPNLSAGKSKGGRPPRVKDTDTQALESDLSSVLGLDVSIDHRGSTGTLTITYATLEQLDDLCNRLTRGI
# Variants of: B1
# Experiment: one-hybrid fitness for binding parS DNA (scaled: cognate 1, non-cognate 0); higher = stronger binding
# Conditions: with parS DNA site
# Procedure, shortened: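 Values were rescaled so that cognate is 1 and non-cognate is 0. Each is a fitness, the log change in a variant's read ratio to wild type from Illumina reads of plasmids before and after selection, with three replicate libraries pooled and variants under 10 reads dropped. Selection of the Caulobacter ParB libraries, four specificity codons randomised, used E. coli USO with a HIS3 reporter, site 19 bp from the promoter, on M9-minus-histidine with 0.1 mM IPTG and 5 mM 3-AT for 48 hours at 37°C.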
row,Variant,one-hybrid fitness for binding parS DNA
1,QHTG,≤ 0.2
2,MPAG,≤ 0.2
3,DFHP,≤ 0.2
4,CVVR,≤ 0.2
5,DPTG,≤ 0.2
6,AMGY,≤ 0.2
7,FTAR,≤ 0.2
8,KPAR,≤ 0.2
9,ESAL,≤ 0.2
10,LHAH,≤ 0.2
11,HVPN,≤ 0.2
12,MERR,≤ 0.2
13,LYPP,≤ 0.2
14,CFPV,≤ 0.2
15,QAAN,≤ 0.2
16,ASQL,≤ 0.2
17,ITFS,≤ 0.2
18,YNSN,≤ 0.2
19,RAWY,0.512
20,NYVG,≤ 0.2
21,YWRS,≤ 0.2
22,FLSI,≤ 0.2
23,RTVC,0.929
24,INEC,≤ 0.2
25,RTAG,1

row,Variant,one-hybrid fitness for binding parS DNA
1,TGPS,≤ 0.2
2,THLC,≤ 0.2
3,RWAD,≤ 0.2
4,RAAW,0.233
5,DRIG,≤ 0.2
6,FTES,≤ 0.2
7,LGKM,≤ 0.2
8,WGLI,≤ 0.2
9,PDPM,≤ 0.2
10,YGEM,≤ 0.2
11,AVGC,≤ 0.2
12,RSGC,0.956
13,KPRC,≤ 0.2
14,TRMI,≤ 0.2
15,EWVM,≤ 0.2
16,TQHV,≤ 0.2
17,SYHY,≤ 0.2
18,DWPE,≤ 0.2
19,GSML,≤ 0.2
20,FHYF,≤ 0.2
21,NDMP,≤ 0.2
22,SAMT,≤ 0.2
23,YSPT,≤ 0.2
24,PNDF,≤ 0.2
25,QYYI,≤ 0.2

row,Variant,one-hybrid fitness for binding parS DNA
1,TLHV,≤ 0.2
2,ATTG,≤ 0.2
3,IAQV,≤ 0.2
4,IAVL,≤ 0.2
5,VVAW,≤ 0.2
6,TIPS,≤ 0.2
7,TDYE,≤ 0.2
8,KKLA,≤ 0.2
9,VRRF,≤ 0.2
10,PGAC,≤ 0.2
11,SANV,≤ 0.2
12,LVHS,≤ 0.2
13,HLQI,≤ 0.2
14,YHAG,≤ 0.2
15,KRQL,≤ 0.2
16,AIHP,≤ 0.2
17,YWHS,≤ 0.2
18,LYHI,≤ 0.2
19,TMIH,≤ 0.2
20,DIDG,≤ 0.2
21,DAPP,≤ 0.2
22,FCSA,≤ 0.2
23,WRWW,≤ 0.2
24,WSHR,≤ 0.2
25,CRRQ,≤ 0.2

row,Variant,one-hybrid fitness for binding parS DNA
1,TQTL,≤ 0.2
2,LNLT,≤ 0.2
3,NALM,≤ 0.2
4,ILPV,≤ 0.2
5,NMNW,≤ 0.2
6,TFRL,≤ 0.2
7,NTPS,≤ 0.2
8,FLGG,≤ 0.2
9,HTWC,≤ 0.2
10,LRMK,≤ 0.2
11,LHGW,≤ 0.2
12,IQPT,≤ 0.2
13,TQYF,≤ 0.2
14,PHAM,≤ 0.2
15,HQEF,≤ 0.2
16,SLYN,≤ 0.2
17,GRHW,≤ 0.2
18,VPMR,≤ 0.2
19,SVLL,≤ 0.2
20,HRQG,0.25
21,VTTK,≤ 0.2
22,ANYM,≤ 0.2
23,LKEN,≤ 0.2
24,GCWS,≤ 0.2
25,HPYD,≤ 0.2

row,Variant,one-hybrid fitness for binding parS DNA
1,GLKM,≤ 0.2
2,GHVW,≤ 0.2
3,IFRN,≤ 0.2
4,NHRK,≤ 0.2
5,YHYG,≤ 0.2
6,QKMW,≤ 0.2
7,QSSS,≤ 0.2
8,GTVW,≤ 0.2
9,HIHG,≤ 0.2
10,KKRT,≤ 0.2
11,APTV,≤ 0.2
12,ACSE,≤ 0.2
13,PHSA,≤ 0.2
14,EANL,≤ 0.2
15,MLYE,≤ 0.2
16,LCFG,≤ 0.2
17,MYAV,≤ 0.2
18,PGSL,≤ 0.2
19,SMHE,≤ 0.2
20,RMCC,0.985
21,GSTS,≤ 0.2
22,PKMT,≤ 0.2
23,VCRS,≤ 0.2
24,EVFG,≤ 0.2
25,KYHF,≤ 0.2

row,Variant,one-hybrid fitness for binding parS DNA
1,CHQC,≤ 0.2
2,CMNL,≤ 0.2
3,TVCC,≤ 0.2
4,FMGG,≤ 0.2
5,LKYT,≤ 0.2
6,ATWF,≤ 0.2
7,KAKI,≤ 0.2
8,PKFP,≤ 0.2
9,TTNV,≤ 0.2
10,HVVS,≤ 0.2
11,RYGV,≤ 0.2
12,IAGL,≤ 0.2
13,RNMC,0.745
14,MITW,≤ 0.2
15,RFLL,≤ 0.2
16,CSRV,≤ 0.2
17,TQYS,≤ 0.2
18,RPMT,≤ 0.2
19,LNAP,≤ 0.2
20,RSWE,≤ 0.2
21,PPWD,≤ 0.2
22,PRAN,≤ 0.2
23,NRLF,≤ 0.2
24,RMSN,0.449
25,STLA,≤ 0.2

row,Variant,one-hybrid fitness for binding parS DNA
1,LDRL,≤ 0.2
2,QLKN,≤ 0.2
3,RLHY,0.473
4,WCSG,≤ 0.2
5,TAHT,≤ 0.2
6,KNKF,0.221
7,GMNC,≤ 0.2
8,LGPI,≤ 0.2
9,KPSQ,≤ 0.2
10,VCKL,≤ 0.2
11,TQVG,≤ 0.2
12,NDWR,≤ 0.2
13,FRRA,≤ 0.2
14,CPRD,≤ 0.2
15,RCRN,0.387
16,HFAA,≤ 0.2
17,TQSH,≤ 0.2
18,AAPG,≤ 0.2
19,TWTW,≤ 0.2
20,IDSA,≤ 0.2
21,TACG,≤ 0.2
22,PRFW,≤ 0.2
23,YKYR,≤ 0.2
24,LRQR,≤ 0.2
25,IESR,≤ 0.2

row,Variant,one-hybrid fitness for binding parS DNA
1,QHLC,≤ 0.2
2,PNFI,≤ 0.2
3,PDYT,≤ 0.2
4,IRHN,≤ 0.2
5,YAAC,≤ 0.2
6,EMNR,≤ 0.2
7,SKSC,≤ 0.2
8,EEGT,≤ 0.2
9,NERS,≤ 0.2
10,RFMW,0.208
11,GIYG,≤ 0.2
12,CADC,≤ 0.2
13,LCPN,≤ 0.2
14,SSDC,≤ 0.2
15,RKVR,≤ 0.2
16,RCYL,≤ 0.2
17,TRLI,≤ 0.2
18,WIRL,≤ 0.2
19,WYKL,≤ 0.2
20,LLEL,≤ 0.2
